Results taken from the supplement of paper PMC8285479.
Where a name gives a salt, the structure may show the parent alone. ± gives the standard deviation of the averaged measurements. Whole data set: some 1,900 compounds, median “normalised cell viability (NPI; 0 = phenylarsine oxide control, 1 = DMSO control)” near 1, cut for the lowest 2% near 0.039. This is one part of the list.

System: NCI-H1944
Test: normalised cell viability (NPI; 0 = phenylarsine oxide control, 1 = DMSO control) (fraction of DMSO control); NCI-H1944 is a non-small cell lung cancer line; higher = more viable cells (less compound toxicity)
Conditions: 6 days
[1] = glucocorticoid arm: hydrocortisone 2.75 uM co-treatment, compound 1 µM
[2] = glucocorticoid arm: hydrocortisone 2.75 uM co-treatment, compound 5 µM
[3] = glucocorticoid arm: hydrocortisone 2.75 uM pre-treated 2 days and continued, compound 1 µM
[4] = glucocorticoid arm: hydrocortisone 2.75 uM pre-treated 2 days and continued, compound 5 µM
[5] = glucocorticoid arm: vehicle, compound 1 µM
[6] = glucocorticoid arm: vehicle, compound 5 µM
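Also: CTB read-out in 384-well plates, mean of triplicate wells, normalised per plate against 1 µM phenylarsine oxide and 0.1% DMSO, compounds added 24 h after seeding.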

| Compound | normalised cell viability [1] | normalised cell viability [2] | normalised cell viability [3] | normalised cell viability [4] | normalised cell viability [5] | normalised cell viability [6] |
| --- | --- | --- | --- | --- | --- | --- |
| CCC[C@H](NC(=O)/C(C#N)=C/c1cccc(Br)n1)c1ccccc1 | 1.017 ± 0.0058 | 0.726 ± 0.1 | 1.02 ± 0.01 | 1.09 ± 0.025 | 0.996 ± 0.0046 | 0.339 ± 0.026 |
| O=c1onc2n1-c1cc(Br)ccc1OC2 | 1.02 ± 0.016 | 0.996 ± 0.013 | 1.027 ± 0.0058 | 1.06 ± 0.064 | 1.023 ± 0.0058 | 1.033 ± 0.0058 |
| Cc1ccc(/C(=C\CN2CCCC2)c2ccccn2)cc1 [Triprolidine hydrochloride] | 1 ± 0.0095 | 1 ± 0.033 | 1.02 ± 0.017 | 0.996 ± 0.026 | 1.002 ± 0.0076 | 1.01 ± 0.011 |
| CCc1c2c(nc3ccc(OC(=O)N4CCC(N5CCCCC5)CC4)cc13)-c1cc3c(c(=O)n1C2)COC(=O)[C@]3(O)CC [Irinotecan HCl; Irinotecan hydrochloride] | 1.02 ± 0.01 | 0.353 ± 0.013 | 1.01 ± 0.014 | 0.693 ± 0.015 | 0.914 ± 0.022 | 0.0996 ± 0.0021 |
| C=CCN1CCc2c(cc(O)c(O)c2Cl)C(c2ccccc2)C1 (racemic) [(±)-Chloro-APB hydrobromide] | 0.9917 ± 0.0072 | 1.02 ± 0.01 | 0.989 ± 0.0061 | 1 ± 0.011 | 0.9943 ± 0.0021 | 0.99467 ± 0.00058 |
| CNCCC=C1c2ccccc2CCc2ccccc21 [Nortriptyline hydrochloride] | 1.013 ± 0.0058 | 0.98 ± 0.026 | 1.02 ± 0.011 | 0.861 ± 0.28 | 0.9993 ± 0.0011 | 1.02 ± 0.01 |
| O=C(NC(NC(=S)Nc1ccc(F)c([N+](=O)[O-])c1)C(Cl)(Cl)Cl)C(c1ccccc1)c1ccccc1 (stereo not drawn) | 0.9663 ± 0.0071 | 0.932 ± 0.011 | 0.946 ± 0.025 | 0.964 ± 0.007 | 0.9937 ± 0.0025 | 0.995 ± 0.017 |
| Cc1ccc(C(=O)Nc2ccc(S(=O)(=O)O)c3cc(S(=O)(=O)O)cc(S(=O)(=O)O)c23)cc1NC(=O)c1cccc(NC(=O)Nc2cccc(C(=O)Nc3cc(C(=O)Nc4ccc(S(=O)(=O)O)c5cc(S(=O)(=O)O)cc(S(=O)(=O)O)c45)ccc3C)c2)c1 [Suramin·6Na] | 1.01 ± 0.015 | 1.03 ± 0.013 | 1 ± 0.011 | 1.03 ± 0.014 | 0.9985 ± 0.0064 | 1.01 ± 0.0063 |
| Cc1ccc(C(=O)Nc2ccc(S(=O)(=O)O)c3cc(S(=O)(=O)O)cc(S(=O)(=O)O)c23)cc1NC(=O)c1cccc(NC(=O)Nc2cccc(C(=O)Nc3cc(C(=O)Nc4ccc(S(=O)(=O)O)c5cc(S(=O)(=O)O)cc(S(=O)(=O)O)c45)ccc3C)c2)c1 [Suramin hexasodium] | 1.02 ± 0.015 | 1.03 ± 0.01 | 1.03 ± 0.023 | 1.03 ± 0.015 | 0.991 ± 0.023 | 1.006 ± 0.0069 |
| NC(=O)c1ncn([C@@H]2O[C@H](CO)[C@@H](O)[C@H]2O)c1O [Mizoribine] | 0.977 ± 0.0098 | 0.947 ± 0.02 | 0.993 ± 0.019 | 1 ± 0.098 | 0.9787 ± 0.0032 | 0.984 ± 0.013 |
| CCOc1cc2ncc(C#N)c(Nc3ccc(OCc4ccccn4)c(Cl)c3)c2cc1NC(=O)/C=C/CN(C)C [Neratinib (HKI-272)] | 0.792 ± 0.0085 | 0.633 ± 0.033 | 0.812 ± 0.048 | 0.722 ± 0.027 | 0.761 ± 0.054 | 0.583 ± 0.01 |
| Cc1cc(NC(=O)c2cccc(NC(=O)/C=C/CN(C)C)c2)ccc1Nc1nccc(-c2cccnc2)n1 | 0.989 ± 0.016 | 0.943 ± 0.017 | 1.007 ± 0.0058 | 0.917 ± 0.026 | 0.959 ± 0.011 | 0.702 ± 0.033 |
| O=C1c2ccccc2C(=O)c2c(NCCc3ccc(O)cc3)ccc(NCCc3ccc(O)cc3)c21 | 1.01 ± 0.012 | 1.02 ± 0.038 | 1.01 ± 0.012 | 1.012 ± 0.0075 | 1.01 ± 0.0063 | 1.022 ± 0.0098 |
| FC(F)(F)c1ccc(/C=C/c2nc(COc3ccc(CCCCn4ccnn4)cc3)co2)cc1 [Mubritinib (TAK 165)] | 0.806 ± 0.011 | 0.46 ± 0.025 | 0.81 ± 0.031 | 0.638 ± 0.088 | 0.85 ± 0.0053 | 0.54 ± 0.094 |
| CNCC[C@H](Oc1ccc(C(F)(F)F)cc1)c1ccccc1 [S-(+)-Fluoxetine hydrochloride] | 0.9977 ± 0.0015 | 0.926 ± 0.006 | 1.01 ± 0.01 | 1.023 ± 0.0058 | 1.001 ± 0.009 | 1 ± 0.011 |
| CC(=O)OCC(=O)[C@@]1(O)CC[C@H]2[C@@H]3CCC4=CC(=O)CC[C@]4(C)[C@H]3C(=O)C[C@@]21C [Cortisone 21-acetate] | 0.989 ± 0.016 | 1.02 ± 0.01 | 0.996 ± 0.017 | 1.015 ± 0.0071 | 0.998 ± 0.011 | 1.01 |
| Cn1cc(C(=O)OCC2CCN(CCNS(C)(=O)=O)CC2)c2ccccc21 | 1.01 ± 0.01 | 0.997 ± 0.014 | 1.02 ± 0.011 | 1.03 ± 0.014 | 1.017 ± 0.0058 | 1.023 ± 0.0058 |
| Cc1nc(N=Nc2ccc(C(=O)O)cc2)c(COP(=O)(O)O)c(C=O)c1O | 0.999 ± 0.0017 | 0.998 ± 0.02 | 1.01 ± 0.01 | 1.005 ± 0.0087 | 0.9937 ± 0.0085 | 1 ± 0.016 |
| C[C@H]1C[C@H]2[C@@H]3CCC4=CC(=O)C=C[C@]4(C)[C@@]3(Cl)[C@@H](O)C[C@]2(C)[C@@]1(O)C(=O)CO [Beclomethasone] | 0.998 ± 0.0017 | 1.02 ± 0.01 | 1.01 ± 0.01 | 1 | 0.803 ± 0.031 | 0.738 ± 0.039 |
| Oc1ccc(O)cc1 [Hydroquinone] | 1.01 ± 0.025 | 1.05 ± 0.015 | 1.01 ± 0.015 | 1.02 ± 0.011 | 0.9993 ± 0.0011 | 1.01 |
| COc1cc2nc(N3CCN(C(=O)C4CCCO4)CC3)nc(N)c2cc1OC (stereo not drawn) [Terazosin HCl] | 1.02 ± 0.022 | 1.02 ± 0.024 | 1.05 ± 0.01 | 1.02 ± 0.015 | 1.023 ± 0.0058 | 1.01 ± 0.015 |
| COc1cc2nc(N3CCN(C(=O)C4CCCO4)CC3)nc(N)c2cc1OC (stereo not drawn) [Terazosin hydrochloride] | 0.998 ± 0.019 | 1.02 ± 0.016 | 0.856 ± 0.24 | 1.001 ± 0.0076 | 0.993 ± 0.004 | 1 ± 0.0095 |
| CC1CCN=C(N)S1 (racemic) [(±)-AMT hydrochloride] | 0.982 ± 0.015 | 0.968 ± 0.015 | 0.9923 ± 0.0067 | 0.975 ± 0.0071 | 0.9907 ± 0.0095 | 0.9677 ± 0.0046 |
